Data: PubChem BioAssay AID624418 (National Center for Advancing Translational Sciences (NCATS), 2012)
About 530 (0.13%) of roughly 410,000 compounds were called active. This list was built around the results that the source calls inconclusive (neither active nor inactive); the mix of calls is not that of the screen. The call rests on the fitted dose curve; in most records, active means well fitted inhibition curve with a large enough effect; inconclusive means small, poorly fitted or top-dose-only effect, or another doubt; inactive means no such curve, though single readings can be large or run the other way. A potency beside an inconclusive call is a rough fit, not a confirmed value.

assay: qHTS of GLP-1 Receptor Inverse Agonists: Cytotox Screen; details: HEK293 cAMP-luciferase reporter cells, luminescence, 24 h; activity change, negative = inhibition: at 38.3 µM (top of the series) unless noted
Outline: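 Seeding density was 200 cells/uL; after overnight-length (12 h) culture, 23 nL compounds went on for 24 h at 37 °C. Readout used a luciferase detection reagent, luminescence taken after 12 min at room temperature.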
On the % scale 0 is the no-effect control and ±100 the full control effect; potency means the concentration at half of the fitted maximal effect.

For `COCC1CCN(C(=O)CCc2nnc(CCCCc3ccccc3)o2)CC1`, which Potency is on record?
The Potency was inconclusive: 28.2 µM [inhibitor, single point].

Which “activity change, negative = inhibition” value does the source give for `O=C(CN1CCN(c2ccc(Cl)cc2)CC1)NCc1ccccc1` here?
The value was inactive: 2.55%.

With `Cc1ccc(/C=C2\CC(C)CC3=C2NC(=S)NC3c2ccc(C)cc2)cc1` (configuration not stated) as the compound, how does the Potency read?
Its Potency is inconclusive: 28.2 µM [inhibitor, single point].

For `O=C(NC(=S)Nc1ccccc1Br)c1ccco1`, which Potency is on record?
Its Potency is inconclusive: 28.2 µM [inhibitor, single point].

With `O=C(CCc1nc(-c2ccccc2F)no1)Nc1ccc(Oc2ccccc2)cc1` as the compound, how does the Potency read?
The Potency was inconclusive: 28.2 µM [inhibitor, single point].

With `Cc1ccc2nc3sc(C(=O)Nc4c(C)[nH]c(=O)[nH]c4=O)c(N)c3cc2c1` as the compound, how does the “activity change, negative = inhibition” value read?
The value was inactive: 2.72%.

With `CN(C)c1ccc(Sc2ccc3nc(N)nc(N)c3c2)cc1` as the compound, how does the Potency read?
The Potency was inconclusive: 11.2 µM [inhibitor, partial curve, poor fit].

With `CCCN1CCC(NCc2cn(C)nc2-c2ccc(Oc3ccccc3)cc2)CC1` as the compound, how does the Potency read?
The Potency was inconclusive: 12.6 µM [inhibitor, single point].

For `O=C(NCC(c1cccs1)N1CCOCC1)c1ccccc1NS(=O)(=O)c1ccc(Cl)cc1` (configuration not stated), which Potency is on record?
Its Potency is inconclusive: 28.2 µM [inhibitor, single point].

For `COc1ccccc1NS(=O)(=O)c1ccc(NN=C2CCCCC2)c([N+](=O)[O-])c1`, which Potency is on record?
Its Potency is inconclusive: 12.6 µM [inhibitor, single point].

With `CC(=O)Oc1ccccc1C(=O)C=Cc1cccc([N+](=O)[O-])c1` as the compound, how does the Potency read?
Its Potency is inconclusive: 22.4 µM [inhibitor, partial curve, poor fit].

For `CCC1=NN(C(=O)c2ccc(Cl)cc2)C(O)(c2ccc(C)cc2)C1` (configuration not stated), which Potency is on record?
The Potency was inconclusive: 10 µM [inhibitor, partial curve, poor fit].

Which Potency does the source give for `Cc1cccc2nc(COc3ccc4ccccc4c3Br)cn12` here?
The Potency was inconclusive: 10 µM [inhibitor, partial curve].

Which Potency does the source give for `Cc1cc(N2CCN(Cc3nc(-c4ccc(Cl)cc4)oc3C)CC2)cc(C)n1` here?
The Potency was inconclusive: 12.6 µM [inhibitor, single point].

With `COc1ccc(C2Sc3ccccc3NC3=C2C(=O)c2ccccc23)c(OC)c1OC` (configuration not stated) as the compound, how does the Potency read?
Its Potency is inconclusive: 2.24 µM [inhibitor, full curve].

With `Cc1cccc(CN2CCC(C(=O)Nc3cccc(-c4cccc(F)c4)c3)CC2)n1` as the compound, how does the Potency read?
Its Potency is inconclusive: 12.6 µM [inhibitor, single point].

For `O[C@H]1C[C@H](c2ccccc2)N(Cc2cccs2)C[C@@H]1n1cc(-c2ccc(F)cc2)nn1`, which “activity change, negative = inhibition” value is on record?
The value was inactive: -7.49%.

Which “activity change, negative = inhibition” value does the source give for `Cc1cccc(Cn2cc(C(=O)Nc3ccc(F)c(C(F)(F)F)c3)ccc2=O)c1` here?
Its value is inactive: -10.3%.

With `CCOc1cc(C(=O)CSc2nnc(CNc3ccc(Cl)cc3)o2)ccc1NC(=O)CC` as the compound, how does the Potency read?
Its Potency is inconclusive: 11.2 µM [inhibitor, partial curve, poor fit].

With `CCOC(=O)CN1C(=O)CSc2ccc(S(=O)(=O)N3CCCC3)cc21` as the compound, how does the “activity change, negative = inhibition” value read?
The value was inactive: 12.3%.

For `CCOC(=O)c1csc(N/N=C2\CCCc3ccccc32)n1`, which Potency is on record?
Its Potency is inconclusive: 11.2 µM [inhibitor, single point].

With `CCOC(=O)C1=CNS(=O)(=O)NC1c1ccc(C#N)cc1` (configuration not stated) as the compound, how does the “activity change, negative = inhibition” value read?
The value was inactive: 0.39%.

With `CCN1CCN(S(=O)(=O)c2ccc(Cl)c(C(=O)N(C)C(c3ccccc3)c3ccccc3)c2)CC1` as the compound, how does the Potency read?
Its Potency is inconclusive: 28.2 µM [inhibitor, single point].

With `CCc1n[nH]c(=S)n1/N=C/c1ccc(-c2ccc(Br)cc2)o1` as the compound, how does the “activity change, negative = inhibition” value read?
Its value is inactive: -21.6%.

Which Potency does the source give for `Cc1ccccc1N1C(=O)C(Oc2ccc(Cl)cc2)C1CNC(C)(C)C` (configuration not stated) here?
The Potency was inconclusive: 28.2 µM [inhibitor, single point].

Which “activity change, negative = inhibition” value does the source give for `O=S1(=O)c2ccccc2N(Cc2ccccc2)c2ccccc21` here?
Its value is inactive: 16.1%.

With `CN1/C(=C\C(=S)Nc2ccccc2)C(C)(C)c2ccccc21` as the compound, how does the Potency read?
Its Potency is inconclusive: 28.2 µM [inhibitor, single point].

For `O=C(CN1c2ccccc2Sc2ccccc21)NNC(=S)Nc1ccc(Cl)cc1`, which “activity change, negative = inhibition” value is on record?
The value was inactive: 9.29%.

Which Potency does the source give for `C=CCSC(=C(C#N)C#N)c1cc2c([nH]1)CCCC2` here?
Its Potency is inconclusive: 12.6 µM [inhibitor, single point].

With `CS(=O)(=O)Nc1cccc(NC(=O)c2cccc3c(-c4cccc(C(N)=O)c4)coc23)c1` as the compound, how does the Potency read?
Its Potency is inconclusive: 28.2 µM [inhibitor, single point].

For `CCC12CN3CC(C)(CN(C1)C3c1c[nH]c3ccc(OC)cc13)C2=O` (configuration not stated), which “activity change, negative = inhibition” value is on record?
The value was inactive: -2.42%.

For `C=C1CC(COc2ccc3c(C)c(Cl)c(=O)oc3c2)(c2ccccc2)OC1=O` (configuration not stated), which Potency is on record?
The Potency was inconclusive: 28.2 µM [inhibitor, single point].

Which “activity change, negative = inhibition” value does the source give for `Fc1ccc(-c2ccnc(=S)[nH]2)cc1` here?
Its value is inactive: 14.1%.

With `Cc1ccccc1NC(=O)CN1CCN(Cc2ccccc2)CC1` as the compound, how does the Potency read?
The Potency was inconclusive: 28.2 µM [inhibitor, single point].

Which Potency does the source give for `O=c1[nH]nc(Sc2ncnc3sccc23)n1CCc1ccccc1` here?
Its Potency is inconclusive: 7.94 µM [inhibitor, partial curve, poor fit].

For `Cc1cnn(C(=S)NCCc2ccccc2)c1`, which Potency is on record?
Its Potency is inconclusive: 28.2 µM [inhibitor, single point].

With `O=[N+]([O-])c1nn(-c2ccc3c(c2)OCCO3)n(O)c1=Nc1ccc(Cl)cc1` as the compound, how does the Potency read?
Its Potency is inconclusive: 2.51 µM [inhibitor, partial curve, poor fit].

For `O=C(NCc1ccc2c(c1)OCO2)C1CC(c2ccc(Cl)cc2)=NO1` (configuration not stated), which Potency is on record?
The Potency was inconclusive: 12.6 µM [inhibitor, partial curve, poor fit].

With `C/C(=N/n1cnnc1)c1cccnc1` as the compound, how does the “activity change, negative = inhibition” value read?
Its value is inactive: 15%.

For `CCN(CC)c1ccc(C(=O)OCc2cc(=O)oc3cc(O)ccc23)cc1`, which “activity change, negative = inhibition” value is on record?
The value was inactive: 144%.

With `COc1ccc2nc(C)cc(SCC(=O)N/N=C/c3ccc(O)cc3O)c2c1` as the compound, how does the Potency read?
Its Potency is inconclusive: 25.1 µM [inhibitor, single point].

For `CNC(=O)c1c(O)c2cccc3c2n(c1=O)CCC3`, which Potency is on record?
Its Potency is inconclusive: 28.2 µM [inhibitor, single point].

With `CN1CCN(c2ccc(S(=O)(=O)N3CCCCC3)cc2NC(=O)/C=C/c2ccc(OC(F)F)cc2)CC1` as the compound, how does the Potency read?
The Potency was inconclusive: 28.2 µM [inhibitor, single point].

Which Potency does the source give for `COc1ccc(-c2cc(C(=O)N3CCN(c4ncccn4)CC3)c3ccccc3n2)cc1OC` here?
Its Potency is inconclusive: 7.08 µM [inhibitor, partial curve, poor fit].

With `Cc1ccccc1NC(=O)c1cccnc1` as the compound, how does the “activity change, negative = inhibition” value read?
The value was inactive: 3.81%.

Which Potency does the source give for `O=c1cc(-c2ccccc2)[nH]n1-c1ccc([N+](=O)[O-])cc1` here?
The Potency was inconclusive: 11.2 µM [inhibitor, partial curve, poor fit].

For `COc1ccc(C2c3c4c(n(C)c3CCN2C)CCN(C)C4c2ccc(OC)cc2)cc1` (configuration not stated), which Potency is on record?
The Potency was inconclusive: 10 µM [inhibitor, single point].

With `O=c1[nH]c(CSc2cccc[n+]2[O-])nc2ccccc12` as the compound, how does the Potency read?
The Potency was inconclusive: 28.2 µM [inhibitor, single point].

With `CCCCS(=O)(=O)c1oc(-c2ccc(F)cc2)nc1S(=O)(=O)c1ccccc1` as the compound, how does the Potency read?
The Potency was inconclusive: 11.2 µM [inhibitor, partial curve, poor fit].

Which “activity change, negative = inhibition” value does the source give for `Cc1cccc(OC(C)C(=O)NCc2ccc(S(N)(=O)=O)cc2)c1` (configuration not stated) here?
The value was inactive: 2.15%.

Which Potency does the source give for `Cc1c(O)ccc(/C=N/Nc2nc(-c3cccnc3)nc3ccccc23)c1O` here?
Its Potency is inconclusive: 10 µM [inhibitor, partial curve, poor fit].

For `O=C(NN=C1C2CC3CC(C2)CC1C3)c1ccccc1O`, which Potency is on record?
The Potency was inconclusive: 28.2 µM [inhibitor, single point].

For `CCN1CCN(c2ccc(NC(=O)c3ccc4c(c3)OCCO4)cc2C)CC1`, which “activity change, negative = inhibition” value is on record?
The value was inactive: -4.68%.

With `CCOc1ccc(S(=O)(=O)NCCC(=O)NCC2(N3CCCCC3)CCCCC2)cc1` as the compound, how does the Potency read?
The Potency was inconclusive: 22.4 µM [inhibitor, single point].

For `CCc1ccc(NC(=S)NC(=O)CC(C)C)cc1`, which Potency is on record?
Its Potency is inconclusive: 10 µM [inhibitor, partial curve, poor fit].

With `CC1=CC(C)(C)N(S(=O)(=O)c2ccc(C)cc2)c2ccccc21` as the compound, how does the Potency read?
Its Potency is inconclusive: 5.01 µM [inhibitor, full curve, poor fit].

For `Cn1c(=O)c2ccccc2n2c(CCl)nnc12`, which Potency is on record?
Its Potency is inconclusive: 7.08 µM [inhibitor, partial curve, poor fit].

With `C(=C\c1nc(N2CCCC2)c2ccccc2n1)/c1ccccc1` as the compound, how does the Potency read?
Its Potency is inconclusive: 12.6 µM [inhibitor, single point].

With `OC[C@@H]1CN(Cc2ccc(Cl)cc2)C[C@H](n2cnc3c(N4CCN(c5ccccc5)CC4)ncnc32)O1` as the compound, how does the Potency read?
Its Potency is inconclusive: 14.1 µM [inhibitor, single point].

For `O=C(NCc1ccco1)C(Cc1ccccc1)NS(=O)(=O)c1cccc2nsnc12` (configuration not stated), which “activity change, negative = inhibition” value is on record?
Its value is inactive: 3.84%.

For `O=C(N/N=C1\C/C(=N\NC(=O)c2ccncc2)c2ccccc21)c1ccncc1`, which “activity change, negative = inhibition” value is on record?
The value was inactive: -27.9%.

For `COc1ccc(-c2nc(CS(=O)(=O)CC(=O)NCCCc3ccccc3)c(C)o2)cc1`, which “activity change, negative = inhibition” value is on record?
The value was inactive: 0%.

With `O=c1nc(SCc2c(F)cccc2Cl)nc(-c2ccccc2)[nH]1` as the compound, how does the “activity change, negative = inhibition” value read?
Its value is inactive: 2.69%.

With `Fc1ccc(COc2ccc(Br)cc2CNCC2CCCO2)cc1` (configuration not stated) as the compound, how does the Potency read?
The Potency was inconclusive: 22.4 µM [inhibitor, single point].

Which Potency does the source give for `Cc1ccc(CNC(=S)Nc2cc(C)ccc2OC(F)F)cc1` here?
Its Potency is inconclusive: 28.2 µM [inhibitor, single point].

Which Potency does the source give for `COc1ccc(N(CC(=O)NCc2ccco2)S(C)(=O)=O)cc1` here?
Its Potency is inconclusive: 2.82 µM [inhibitor, full curve, poor fit].

With `CC1(C)CC(=O)C2=C(C1)NC1=C(C(=O)c3ccccc31)C2c1ccc(O)cc1` (configuration not stated) as the compound, how does the Potency read?
The Potency was inconclusive: 4.47 µM [inhibitor, partial curve, poor fit].
